Source: the supplement of paper PMC3724861
This is one part of the list.

What follows are sequences tested on T1, Caupolican (Caup) homeodomain DNA-binding domain (assay: PBM E-score (8-mer, recovered from the published 9-mer minima) (E-score (dimensionless, -0.5 to 0.5)); Drosophila protein; higher = stronger relative binding preference, active = 0.31 or more).
T1 sequence: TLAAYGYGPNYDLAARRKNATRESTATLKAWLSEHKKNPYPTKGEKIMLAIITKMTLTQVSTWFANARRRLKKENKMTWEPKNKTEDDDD
In short: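 Caup's homeodomain DNA-binding domain (residues 214-303) was made by in vitro transcription and translation and applied at 100 nM to custom-designed protein binding microarrays. Each value is an enrichment score that gives relative binding preference for a short DNA word, with higher meaning stronger. The 8-mer values were recovered from published 9-mer scores, each of which was the minimum of its two constituent 8-mer scores. A cutoff of 0.31 marks candidate sites.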

Sequence	PBM E-score
CAGTATGA	inactive: 0.127
CGGTATGC	inactive: -0.147
GGAAGCTA	inactive: -0.154
CTGGTTGA	inactive: -0.0348
GACCTGTA	inactive: 0.123
CCAATAAA	inactive: 0.0561
AGTCCGGA	inactive: -0.0664
AGTAGCGA	inactive: 0.0272
AGTAGAAT	inactive: 0.127
CTGGTCTA	inactive: -0.0246
GCCGACTA	inactive: -0.00422
CGACATCC	inactive: 0.134
ACGTTCTA	inactive: 0.0186
AAGGCAAA	inactive: 0.0632
AGATTTCC	inactive: -0.0416
CAACGGGA	inactive: -0.0153
ACCGCTTG	inactive: 0.0304
GTGGTACA	inactive: 0.277
CGCGTGAC	inactive: -0.0427
AACAGGAG	inactive: 0.148
CTAAAATC	inactive: -0.0137
TGAAATAA	≥ 0.169
GCTTTTAA	inactive: -0.0675
TACGAGAA	inactive: 0.0405
CCGCATCG	inactive: -0.195

Sequence	PBM E-score
TCGCGAAA	inactive: -0.0342
AGACGAGC	inactive: -0.114
GCCTCCAA	inactive: -0.121
CCATGACG	inactive: -0.0737
CTGCGCTA	inactive: -0.201
GCCGGAGA	inactive: -0.163
GAATACCC	inactive: -0.0908
CAGACTCC	inactive: -0.153
ACAAGTAA	active: 0.331
CGCCAGAC	inactive: -0.108
CTTTATAC	inactive: 0.0943
ACACGATC	inactive: 0.254
AGGCTGGA	inactive: -0.16
CATCCGCC	inactive: -0.0933
ACTAATCT	inactive: 0.0999
CGCGCCCC	inactive: -0.346
ATGACCTA	≥ 0.11
AGATTAGA	inactive: 0.115
GAGCTGCA	inactive: -0.19
AAGTTCGT	inactive: -0.0542
ATGATTCA	inactive: 0.0987
CCGTCATC	inactive: -0.116
TCCGAAAA	inactive: -0.0323
ACTCTCGG	inactive: -0.12
ACACCTCA	inactive: 0.12

Sequence	PBM E-score
ACCGGCTC	inactive: -0.124
GACGCACA	inactive: -0.0232
ATAACTAG	inactive: 0.113
ACCCTGAG	inactive: -0.0656
CTATGATC	inactive: -0.00506
GTTCAAAA	inactive: 0.0221
CCAGGTTA	inactive: 0.0134
CAAAGACC	inactive: -0.0627
GATGGACA	inactive: 0.118
CACCCATA	inactive: -0.00061
GAATCGGC	inactive: -0.118
GTGAGAGA	inactive: -0.112
ACGTGACC	inactive: -0.0373
AGGCACAC	inactive: -0.0626
GATAAGCA	≥ 0.12
ACGCAGCA	inactive: -0.06
AGGGGTGC	inactive: -0.128
CATCTGAG	inactive: 0.0302
CACTATCG	inactive: -0.0391
TGATGGCA	inactive: -0.0308
ATGATTGC	inactive: 0.137
AGCTTCGG	inactive: -0.0646
CGATACTA	inactive: 0.129
CTTCCGGC	inactive: -0.179
CCTCGAGG	inactive: -0.116

Sequence	PBM E-score
CACTGGCC	inactive: -0.105
CTCCGCAA	inactive: -0.114
CCATTAAA	inactive: 0.0215
CGTTTATA	inactive: 0.00368
AGAAGATA	≥ 0.105
TCTGTGCA	inactive: 0.0826
TACCAACA	inactive: 0.243
TGGAGAAA	inactive: -0.145
GCCTGACA	inactive: 0.0595
CTATCTAC	inactive: 0.196
AGTAAGTC	inactive: 0.035
CCAATCTA	inactive: -0.0392
AATCCCGC	inactive: -0.127
ACGCCACA	≥ -0.00325
ACCTCCCT	inactive: -0.195
CTTCCCTC	inactive: -0.163
CTGTAAAC	inactive: 0.18
CGTATACC	inactive: -0.0469
TAGAGGGA	inactive: -0.06
CAACCTCG	inactive: 0.0146
CGAATACG	inactive: 0.033
ACCGGAGC	inactive: -0.218
CGGCATCC	inactive: -0.0197
AAGCAGGT	inactive: -0.0901
GATTCGCC	inactive: -0.0863

Sequence	PBM E-score
CAGTTTCC	inactive: -0.137
GATCGTAC	inactive: 0.0539
AAGGTCCG	inactive: -0.161
CGCCAGTA	inactive: -0.115
GGAGGGTA	inactive: -0.0611
CCCTACAA	inactive: 0.221
ACCACCTC	inactive: -0.0283
TGGCCAAA	inactive: -0.0452
AAAACGCG	inactive: -0.0503
GGCAAAAA	inactive: -0.0489
AGTCGTCA	inactive: 0.0397
CTAGCTTC	inactive: -0.115
AACATTTG	inactive: 0.169
ACATCTCT	inactive: 0.211
ATACGCCA	≥ 0.0087
AAGGAATA	inactive: 0.1
CGGCGGGA	inactive: -0.305
CACGCCCA	inactive: -0.0669
AGAGGAGG	inactive: -0.228
CCCACATC	inactive: -0.119
CAACCGTG	inactive: 0.0309
ACGAGTAC	≥ 0.205
GAGGTGAA	inactive: -0.0724
TCGTATAA	inactive: 0.121
CCAAAGAG	inactive: -0.0529

Sequence	PBM E-score
AATTTTGG	inactive: 0.0161
AAATAACC	inactive: 0.0615
GGCCGAAC	inactive: -0.204
CCCTCCGG	inactive: -0.29
GCTTCAAC	inactive: -0.0387
CGTCGAAA	inactive: -0.0215
GCATGTCA	active: 0.44
ACCGAGAC	inactive: -0.0205
AGTTATAC	inactive: 0.0957
CTCGTCAA	inactive: 0.0256
CTGTCCCA	inactive: 0.0609
GAGCCGCC	inactive: -0.275
GTTCGCGA	inactive: 0.066
ACTAAGAC	inactive: 0.104
AGATTACA	inactive: 0.259
GCTAAACC	inactive: -0.148
GAATCGTA	inactive: 0.113
AGCTTTAA	inactive: 0.0355
GAGAGCAA	inactive: -0.0503
GGTCAACC	inactive: -0.125
CCTCAGCC	inactive: -0.194
ATTGGACC	inactive: -0.036
ATCAAGAG	inactive: 0.0898
ATTTGTCC	≥ 0.218
GCTGGCAC	inactive: -0.13

Sequence	PBM E-score
CAGCACCC	inactive: -0.145
ATGGAATC	inactive: 0.0733
ACGTGCGA	inactive: -0.053
CTCACCAA	inactive: 0.0427
CTCATGGC	inactive: -0.156
TAGCTATA	inactive: 0.0605
GTTCCCGA	inactive: -0.0674
AAGGACTG	inactive: -0.131
GCCCTAAC	inactive: -0.104
ACTACATA	active: 0.35
CTGATGCC	inactive: -0.0515
CTAATCAC	inactive: 0.17
CTTTCTCC	inactive: -0.143
CCAAAGCC	inactive: -0.149
ACACAGTC	inactive: 0.164
CCGTCTAG	inactive: -0.143
GTCTCTAA	inactive: -0.0163
AACCGCAA	inactive: -0.0707
ACGACCCA	≥ -0.0427
GCATGCTA	inactive: 0.0372
CGGCCACA	inactive: -0.158
CGGGCCTA	≥ -0.155
GACGAGCC	inactive: -0.103
GAACTTTA	inactive: -0.00695
CATTGATC	inactive: 0.193

Sequence	PBM E-score
ATGTATAC	active: 0.356
GGCACGCC	inactive: -0.299
CATTTTCC	inactive: 0.0307
CATCCGGG	inactive: -0.0954
TTAAACAA	inactive: 0.23
CAAAAGGC	inactive: -0.126
AATGAACA	active: 0.317
GTATACGA	inactive: 0.164
GCAACAGA	inactive: 0.0449
AACCTCAT	inactive: 0.0361
ATCTCACG	inactive: -0.0706
ATCCTTAG	inactive: 0.0613
AGATAGAT	inactive: -0.017
GGCTATAA	inactive: 0.0235
ACCACAGG	inactive: -0.121
ATCCCGCC	inactive: -0.151
CAAAGCGC	inactive: -0.207
CGGACCAG	inactive: -0.154
ACACGGCG	inactive: 0.121
ACCCGGAT	inactive: -0.134
AGGCTCAA	inactive: -0.147
ACGCGTAA	inactive: 0.102
CGCAATTC	inactive: -0.0273
ATGAATGG	inactive: 0.00759
TAGAGCGA	inactive: 0.00712

Sequence	PBM E-score
CGTCACCA	inactive: -0.0548
AAACCTGC	inactive: -0.0458
CCCCGACC	inactive: -0.226
AATAATGC	inactive: 0.196
CGGCAACA	inactive: 0.135
GGGTGTCA	inactive: 0.0669
AGAGTTTG	inactive: 0.07
TACGCCTA	inactive: 0.0384
AGCTGTCC	inactive: 0.0287
ACTAAAAC	inactive: 0.158
TACGAAAA	inactive: 0.121
ATCATCAT	inactive: 0.178
GAATAGGA	inactive: 0.0312
CATCAAAA	inactive: 0.0461
AAACTAAG	inactive: 0.122
ACAGATAT	inactive: 0.159
ACGTTTCG	inactive: 0.00718
AAAGGACT	inactive: -0.036
GCCCGCAA	inactive: -0.142
GTTCGCCA	inactive: -0.0903
ATGTAAAC	active: 0.36
ACTCCCGC	inactive: -0.206
ACACGCCA	inactive: 0.143
CTCTTACA	inactive: 0.201
CGGATCTA	inactive: -0.0187
